Some of the results follow.
System: HSkMC (human skeletal muscle cells)
Experiment: cytotoxicity call (relative viability < 0.9)
Conditions: 10 µM

Compound | cytotoxicity call
C=CCNC(=O)[C@@H]1[C@H]2C(=O)O[C@H](c3ccccc3)[C@H](c3ccccc3)N2[C@H](c2ccc(OCCO)cc2)[C@@]12C(=O)Nc1ccc(C#CC3(O)CCCCCC3)cc12 | inactive
Cc1noc(C)c1NC(=O)N(C)C[C@H]1Oc2c(NC(=O)C3CC3)cccc2C(=O)N([C@@H](C)CO)C[C@H]1C | inactive
C[C@H](CO)N1C[C@H](C)[C@H](CN(C)S(=O)(=O)c2cn(C)cn2)Oc2ccc(NC(=O)Nc3ccc(F)cc3)cc2C1=O | inactive
C[C@@H]1CCCCO[C@H](CN(C)S(=O)(=O)c2cccs2)[C@H](C)CN([C@@H](C)CO)C(=O)c2cc(NC(=O)CCC(F)(F)F)ccc2O1 | inactive
Cc1ccc(S(=O)(=O)N(C)C[C@@H]2Oc3ccc(NC(=O)C4CC4)cc3CC(=O)N([C@H](C)CO)C[C@@H]2C)cc1 | inactive
NC[C@@H]1CCCO1 | inactive
COc1ccc(NC(=O)N(C)C[C@H]2OCc3ccccc3-c3c(n(C)c4ccccc34)C(=O)N([C@H](C)CO)C[C@H]2C)cc1 | inactive
Cc1ccc(S(=O)(=O)N(C)C[C@H]2OCCCC[C@@H](C)Oc3ccc(NC(=O)Nc4c(C)noc4C)cc3C(=O)N([C@@H](C)CO)C[C@H]2C)cc1 | inactive

System: HepG2
Experiment: cytotoxicity call (relative viability < 0.9)
Conditions: 10 µM

Compound | cytotoxicity call
C[C@@H]1CN([C@H](C)CO)C(=O)c2cc(C#Cc3ccccc3)cnc2O[C@@H]1CN(C)C(=O)CCN1CCCCC1 | inactive
C[C@@H]1CN([C@@H](C)CO)C(=O)c2cccc(NS(=O)(=O)c3ccc(F)cc3)c2O[C@@H]1CN(C)Cc1ccc(Cl)c(Cl)c1 | inactive
CCCCCNC(=N)NN=Cc1c[nH]c2ccc(OC)cc12.O=C(O)C=CC(=O)O | inactive
C[C@@H]1CN([C@@H](C)CO)C(=O)c2cc(NS(=O)(=O)c3ccc(F)cc3)ccc2O[C@@H]1CN(C)Cc1ccc(Cl)c(Cl)c1 | inactive
COc1ccc(NC(=O)Nc2ccc3c(c2)[C@H]2C[C@H](CC(=O)NCc4ccccn4)O[C@H](CO)[C@H]2O3)cc1 | inactive
C[C@H]1CN([C@@H](C)CO)C(=O)c2cccc(NC(=O)Nc3ccc(F)cc3)c2O[C@H]1CN(C)S(C)(=O)=O | inactive
CSc1nn(C)c2cnn(C)c(=O)c12 | inactive
CCC1C(=O)OCC1Cc1cncn1C.O=[N+]([O-])O (stereo unspecified) | inactive
CCOC(=O)N(C)C[C@H]1OCc2cn(nn2)CCCC(=O)N([C@H](C)CO)C[C@@H]1C | inactive
CO[C@H]1CN(C)C(=O)c2cc(NC(=O)Nc3ccccc3F)ccc2OC[C@H](C)N(CCC(F)(F)F)C[C@@H]1C | inactive
Cc1cccc2sc(NC(=O)c3ccc(C(C)(C)C)cc3)nc12 | inactive
CCCC#Cc1ccc2c(c1)O[C@H](CN(C)Cc1ccc3c(c1)OCO3)[C@@H](C)CN([C@H](C)CO)S2(=O)=O | inactive
C[C@@H]1CN([C@@H](C)CO)S(=O)(=O)c2ccc(C#Cc3cccc(F)c3)cc2O[C@H]1CN(C)S(=O)(=O)c1cn(C)cn1 | inactive
C[C@@H]1CN([C@H](C)CO)C(=O)Cc2cc(NC(=O)Cc3cn(C)c4ccccc34)ccc2O[C@H]1CN(C)Cc1ccc(C(F)(F)F)cc1 | inactive
CC1(C)OC2COC3(COS(N)(=O)=O)OC(C)(C)OC3C2O1 (stereo unspecified) | inactive
COc1ccc(NC(=O)N(C)C[C@H]2OCCCC[C@H](C)Oc3ccc(NC(=O)CCC(F)(F)F)cc3C(=O)N([C@H](C)CO)C[C@@H]2C)cc1 | inactive
CCC(=O)OC1C2CC3=C4CC(=O)OC(c5ccoc5)C4(C)CCC3C(C)(C2=O)C(CC(=O)OC)C1(C)C (stereo unspecified) | inactive
C[C@@H]1CN([C@H](C)CO)C(=O)Cc2cc(NC(=O)Nc3cccc4ccccc34)ccc2O[C@@H]1CN(C)Cc1ccccc1 | active
C[C@H](CO)N1C[C@H](C)[C@@H](CN(C)Cc2ccc(C(F)(F)F)cc2)Oc2ccc(NC(=O)Cc3ccccc3)cc2C1=O | inactive
CC1(N)CCN(c2cnc(-c3cccc(Cl)c3Cl)c(N)n2)CC1 | inactive
Cc1noc(C)c1S(=O)(=O)Nc1ccc2c(c1)C(=O)N([C@@H](C)CO)C[C@@H](C)[C@@H](CN(C)Cc1ccccc1)O2 | inactive
C[C@@H]1CCCCO[C@@H](CN(C)CC2CCCCC2)[C@H](C)CN([C@@H](C)CO)C(=O)c2cc(NS(=O)(=O)c3ccc(F)cc3)ccc2O1 | active
[N-]=[N+]=NCCOCCNC(=O)CCCOc1ccc(CS(=O)c2nnc(-c3ccc(F)cc3)o2)nc1 (stereo unspecified) | active

Source: the antibiotic and cytotoxicity screens of Wong et al. (2023)
